# From the supplement of paper PMC8728848
# The list shows a part of the results.
# B1: MpL2 (Macrolepiota procera) (protein)
# chain: MSTQVSSGQTYKITNVKAGTVIRLSGEDNKSIIGYPYHSGKNQQWTFNWTGKAWTLRSASSGSYLGIEGTPADGTRLVAVNDPFEWHIWRDEANENAFRIFVPFTNYNLDLSGYGDTTPGTPVQLWWTWEGLHQTWTIDRP
# Columns and labels:
# Test in all cases: glycan array binding signal (z-score within array); higher = stronger binding
# Settings in all cases: glycan notation: IUPAC condensed, linker removed; mutation: D22R
# [1] = target: Man(a1-2)Man(a1-3)[Man(a1-2)Man(a1-6)]Man
# Method in brief: (§1)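 Glycan array binding is given as a within-array Z-score, which can be read as non-binding when negative. The arrays, 3228 of them, came from the Consortium for Functional Glycomics database and were retained only where the protein sequence was available. Z-scores were averaged across arrays of the same protein sequence at different concentrations or buffers and across linkers.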
# [2] = target: Man(a1-2)Man(a1-3)[Man(a1-2)Man(a1-6)]Man(a1-6)[Man(a1-2)Man(a1-2)Man(a1-3)]Man
# Method in brief: as §1
# [3] = target: Man(a1-2)Man(a1-3)[Man(a1-2)Man(a1-6)]Man(a1-6)[Man(a1-2)Man(a1-2)Man(a1-3)]Man(b1-4)GlcNAc(b1-4)GlcNAc
# Method in brief: as §1
# [4] = target: Man(a1-2)Man(a1-3)[Man(a1-6)]Man(a1-6)[Man(a1-2)Man(a1-3)]Man(b1-4)GlcNAc(b1-4)GlcNAc
# Method in brief: as §1
# [5] = target: Man(a1-2)Man(a1-6)[Man(a1-3)]Man(a1-6)[Man(a1-2)Man(a1-2)Man(a1-3)]Man
# Method in brief: as §1
# [6] = target: Man(a1-2)Man(a1-6)[Man(a1-3)]Man(a1-6)[Man(a1-2)Man(a1-2)Man(a1-3)]Man(b1-4)GlcNAc(b1-4)GlcNAc
# Method in brief: as §1
# Man(a1-3)[Man(a1-6)]Man = target: Man(a1-3)[Man(a1-6)]Man
# Method in brief: as §1
# [7] = target: Man(a1-3)[Man(a1-6)]Man(a1-6)[Man(a1-2)Man(a1-3)]Man(b1-4)GlcNAc(b1-4)GlcNAc
# Method in brief: as §1
# [8] = target: Man(a1-3)[Man(a1-6)]Man(a1-6)[Man(a1-3)]Man
# Method in brief: as §1
# [9] = target: Man(a1-3)[Man(a1-6)]Man(a1-6)[Man(a1-3)]Man(b1-4)GlcNAc(b1-4)GlcNAc
# Method in brief: as §1
# [10] = target: Man(a1-3)[Man(a1-6)]Man(b1-4)GlcNAc(b1-4)GlcNAc
# Method in brief: as §1
# [11] = target: Man(a1-3)[Man(a1-6)]Man(b1-4)GlcNAc(b1-4)[Fuc(a1-6)]GlcNAc
# Method in brief: as §1
# Man(a1-6)Man = target: Man(a1-6)Man
# Method in brief: as §1
# Man(b1-4)GlcNAc = target: Man(b1-4)GlcNAc
# Method in brief: as §1
# MurNAc(b1-4)GlcNAc = target: MurNAc(b1-4)GlcNAc
# Method in brief: as §1
# Neu5Ac(a2-3)Gal = target: Neu5Ac(a2-3)Gal
# Method in brief: as §1
# [12] = target: Neu5Ac(a2-3)Gal(b1-3)GalNAc
# Method in brief: as §1
# [13] = target: Neu5Ac(a2-3)Gal(b1-3)GalNAc(b1-3)Gal(a1-4)Gal(b1-4)Glc
# Method in brief: as §1
# [14] = target: Neu5Ac(a2-3)Gal(b1-3)GalNAc(b1-4)Gal(b1-4)Glc
# Method in brief: as §1
# [15] = target: Neu5Ac(a2-3)Gal(b1-3)GalNAc(b1-4)[Neu5Ac(a2-3)]Gal(b1-4)Glc
# Method in brief: as §1
# [16] = target: Neu5Ac(a2-3)Gal(b1-3)GalNAc(b1-4)[Neu5Ac(a2-8)Neu5Ac(a2-3)]Gal(b1-4)Glc
# Method in brief: as §1
# [17] = target: Neu5Ac(a2-3)Gal(b1-3)GalNAc6S
# Method in brief: as §1
# [18] = target: Neu5Ac(a2-3)Gal(b1-3)GlcNAc
# Method in brief: as §1
# [19] = target: Neu5Ac(a2-3)Gal(b1-3)GlcNAc(b1-2)Man
# Method in brief: as §1
# [20] = target: Neu5Ac(a2-3)Gal(b1-3)GlcNAc(b1-2)Man(a1-3)[GlcNAc(b1-4)][Neu5Ac(a2-3)Gal(b1-3)GlcNAc(b1-2)Man(a1-6)]Man(b1-4)GlcNAc(b1-4)GlcNAc
# Method in brief: as §1
# [21] = target: Neu5Ac(a2-3)Gal(b1-3)GlcNAc(b1-2)Man(a1-3)[Neu5Ac(a2-3)Gal(b1-3)GlcNAc(b1-2)Man(a1-6)]Man(b1-4)GlcNAc(b1-4)GlcNAc
# Method in brief: as §1
# [22] = target: Neu5Ac(a2-3)Gal(b1-3)GlcNAc(b1-2)[Neu5Ac(a2-3)Gal(b1-3)GlcNAc(b1-4)]Man(a1-6)[Neu5Ac(a2-3)Gal(b1-3)GlcNAc(b1-2)Man(a1-3)]Man(b1-4)GlcNAc(b1-4)GlcNAc
# Method in brief: as §1
# [23] = target: Neu5Ac(a2-3)Gal(b1-3)GlcNAc(b1-3)Gal(b1-3)GlcNAc
# Method in brief: as §1
# [24] = target: Neu5Ac(a2-3)Gal(b1-3)GlcNAc(b1-3)Gal(b1-4)GlcNAc
# Method in brief: as §1
# [25] = target: Neu5Ac(a2-3)Gal(b1-3)GlcNAc(b1-3)GalNAc
# Method in brief: as §1
# [26] = target: Neu5Ac(a2-3)Gal(b1-3)GlcNAc(b1-6)GalNAc
# Method in brief: as §1
# [27] = target: Neu5Ac(a2-3)Gal(b1-3)GlcNAc6S
# Method in brief: as §1
# [28] = target: Neu5Ac(a2-3)Gal(b1-3)[Fuc(a1-4)]GlcNAc
# Method in brief: as §1
# [29] = target: Neu5Ac(a2-3)Gal(b1-3)[Fuc(a1-4)]GlcNAc(b1-3)Gal(b1-3)[Fuc(a1-4)]GlcNAc
# Method in brief: as §1
# [30] = target: Neu5Ac(a2-3)Gal(b1-3)[Fuc(a1-4)]GlcNAc(b1-3)Gal(b1-4)[Fuc(a1-3)]GlcNAc
# Method in brief: as §1
# [31] = target: Neu5Ac(a2-3)Gal(b1-3)[GlcNAc(b1-6)]GalNAc
# Method in brief: as §1
# [32] = target: Neu5Ac(a2-3)Gal(b1-3)[Neu5Ac(a2-6)]GalNAc
# Method in brief: as §1
# [33] = target: Neu5Ac(a2-3)Gal(b1-3)[Neu5Ac(a2-6)]GlcNAc(b1-3)[Fuc(a1-3)[Gal(b1-4)]GlcNAc(b1-6)]Gal(b1-4)Glc
# Method in brief: as §1
binder,measurement,setting,value
B1,glycan array binding signal (z-score),[1],-0.713
same,glycan array binding signal (z-score),[2],0.225
same,glycan array binding signal (z-score),[3],0.471
same,glycan array binding signal (z-score),[4],-0.437
same,glycan array binding signal (z-score),[5],-0.588
same,glycan array binding signal (z-score),[6],-0.086
same,glycan array binding signal (z-score),Man(a1-3)[Man(a1-6)]Man,0.027
same,glycan array binding signal (z-score),[7],1.8
same,glycan array binding signal (z-score),[8],0.103
same,glycan array binding signal (z-score),[9],-0.255
same,glycan array binding signal (z-score),[10],-0.093
same,glycan array binding signal (z-score),[11],0.191
same,glycan array binding signal (z-score),Man(a1-6)Man,-0.378
same,glycan array binding signal (z-score),Man(b1-4)GlcNAc,-0.024
same,glycan array binding signal (z-score),MurNAc(b1-4)GlcNAc,-0.061
same,glycan array binding signal (z-score),Neu5Ac(a2-3)Gal,-0.554
same,glycan array binding signal (z-score),[12],0.304
same,glycan array binding signal (z-score),[13],0.052
same,glycan array binding signal (z-score),[14],-0.568
same,glycan array binding signal (z-score),[15],-0.197
same,glycan array binding signal (z-score),[16],-1.47
same,glycan array binding signal (z-score),[17],-0.234
same,glycan array binding signal (z-score),[18],0.018
same,glycan array binding signal (z-score),[19],-0.87
same,glycan array binding signal (z-score),[20],0.519
same,glycan array binding signal (z-score),[21],1.78
same,glycan array binding signal (z-score),[22],-0.367
same,glycan array binding signal (z-score),[23],-0.798
same,glycan array binding signal (z-score),[24],-0.228
same,glycan array binding signal (z-score),[25],-0.308
same,glycan array binding signal (z-score),[26],-0.086
same,glycan array binding signal (z-score),[27],0.313
same,glycan array binding signal (z-score),[28],-0.119
same,glycan array binding signal (z-score),[29],-0.199
same,glycan array binding signal (z-score),[30],0.382
same,glycan array binding signal (z-score),[31],-0.262
same,glycan array binding signal (z-score),[32],-0.232
same,glycan array binding signal (z-score),[33],0.292
